The values that follow come from the supplement of paper PMC10600219.

Structures can show the parent of a compound that is named as a salt. In all, about 2,800 compounds were measured (“cell viability relative to vehicle”: median about 0.98, lowest 2% from about 0.45 on). The list shows a part of the results.

For this test, the system named is NCI-H2228 alectinib-DTP. The test is described as follows: cell viability relative to vehicle (fraction of vehicle); NCI-H2228 is an ALK-positive lung cancer line and DTP means drug-tolerant persister; higher = less growth inhibition. The settings on record: 100 nM; treatment time 6 days. The essentials:
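Values give cell viability as a fraction of vehicle-treated cells. Parental and drug-tolerant persister NCI-H2228 cells (persisters made with 1000 nM of a targeted drug for 13 days) were exposed in 384-well plates to the 3114-agent TargetMol anti-cancer compound library at 100 nM, with DMSO as vehicle. ATP was then read after 6 days by the CellTiter-Glo 3D Cell Viability Assay.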
Turning to `CCc1cc2c(cc1N1CCC(N3CCOCC3)CC1)C(C)(C)c1[nH]c3cc(C#N)ccc3c1C2=O` [Alectinib], the cell viability was found to be 1.01.

In turn, `CCc1c2c(nc3ccc(O)cc13)-c1cc3c(c(=O)n1C2)COC(=O)[C@]3(O)CC` gave a cell viability of 0.263. The result for `O=C(NCC1(c2nc(-c3ccccc3)cs2)CCOCC1)c1cccc(-c2noc(C(F)(F)F)n2)c1` reads 0.89. The value for `Cc1ccc(NC(=O)c2ccc(CN3CCN(C)CC3)cc2)cc1Nc1nccc(-c2cccnc2)n1` [Imatinib Mesylate] was 1.01. Take `Cc1ccc(NC(=O)c2ccc(CN3CCN(C)CC3)cc2)cc1Nc1nccc(-c2cccnc2)n1` [Imatinib]: the cell viability turned out to be 1.02. The result for `O=C(O)C(=O)O.[NH-][C@@H]1CCCC[C@H]1[NH-].[Pt+2]` [Oxaliplatin] reads 1.15; that for `COc1cc2c(cc1OC)CC(=O)N(CCCN(C)C[C@H]1Cc3cc(OC)c(OC)cc31)CC2` [Ivabradine hydrochloride], 0.954; that for `Cc1ccc(-c2cn3c4c(sc3n2)CCCC4)cc1` [Pifithrin-β hydrobromide], 0.913. Turning to `CC(C)=CCC[C@](C)(O)[C@H]1CC[C@]2(C)[C@@H]1[C@H](O)C[C@@H]1[C@@]3(C)CC[C@H](O)C(C)(C)[C@@H]3CC[C@]12C` [(20S)-Protopanaxadiol], the cell viability was 0.908. `CC(C)(C)OC(=O)c1ncn2c1C(C)(C)Nc1ccccc1-2` registered a cell viability of 1.12.

`CC(C)(O)c1cc(Nc2cc(Oc3cn(C4CC4)nc3C3CCOCC3)ccn2)ccn1` displayed a cell viability of 1. The result for `CCOC(=O)c1cnc2ccc(-c3cncc(NS(=O)(=O)c4ccccc4)c3)cn12` reads 1; that for `NC(=O)CCC(N)C(=O)O` (racemic) [DL-Glutamine], 0.959. The result for `COc1cc2c(c(OC)c1OC)-c1c(cc3c(c1OC)OCO3)CC(C)C(C)C2` (stereo unspecified) [Schizandrin B] reads 0.955; that for `c1cnc(N2CCN(Cc3ccc4c(c3)OCO4)CC2)nc1` [Piribedil], 0.838. The value for `C[C@@H](Nc1cc(F)cc(F)c1)c1cc(C(=O)N(C)C)cc2c(=O)cc(N3CCOCC3)oc12` was 0.804; that for `CC1=C(C(=O)Nc2ccc3[nH]ncc3c2)C(c2ccc(F)cc2)NC(=O)N1` (stereo unspecified) was 1.09. For `COC(=O)/C=C/c1cccc(N(Cc2ccc(-c3ccc(N(C)C)cc3)cc2)C(=O)C2CCCCC2)c1` [Fexaramine], the cell viability is 0.993. The result for `COc1cc(C(=O)N2CCC(N3CCN(C)CC3)CC2)ccc1Nc1ncc2c(n1)N(C)c1ccccc1C(=O)N2C` reads 0.99; that for `Clc1ccc(C(Cn2ccnc2)OCc2ccsc2Cl)c(Cl)c1` (stereo unspecified) [Vagistat], 1.15; that for `CC1(C)O[C@H]2CC(=O)OC[C@]23[C@H]2CC[C@@]4(C)[C@H](c5ccoc5)OC(=O)[C@H]5O[C@]54[C@]2(C)C(=O)C[C@@H]13` [Limonin], 0.968. The compound `CC/C(=C(\c1ccc(O)cc1)c1ccc(OCCN(C)C)cc1)c1ccccc1` [4-Hydroxytamoxifen] yielded a cell viability of 0.815. For the compound `CC12CCC(CC1=O)C2(C)C` [D-Camphor], the cell viability amounted to 1.14. The value for `CN[C@@H]1[C@@H](O[C@H]2O[C@H](CO)[C@@H](N)[C@H](O)[C@H]2O)OC2C[C@@H](N)[C@@H](O[C@H]3[C@H](O)[C@@H](O)[C@H](N)C[C@@H]3N)OC2[C@@H]1O` (stereo partly specified) [Apramycin sulfate] was 1.09; that for `CCN(CC)CCNc1ccc(C)c2sc3ccccc3c(=O)c12` [Lucanthone] was 0.888. `C[C@H](N=C(NC#N)Nc1cccc2ncccc12)c1ccccc1` registered a cell viability of 1. The result for `Cc1cc(C)c(CNC(=O)c2cc(-c3ccc(CN4CCOCC4)cc3)cc3c2cnn3C2CCCC2)c(=O)[nH]1` reads 1.08; that for `CCCCCCCCCCCCCCCCCCCCCCO` [n-Docosanol], 1.01; that for `NS(=O)(=O)c1ccc(NC2=CC(=O)c3ccccc3C2=O)cc1`, 1.07. The value for `CC(=O)NC(Cc1ccccc1)C(=O)O` (stereo unspecified) [Afalanine] was 0.984; that for `CC(C)C[C@@H](C(=O)N[C@H](C(=O)OC1CCCC1)c1ccccc1)[C@H](O)C(=O)NO` [Tosedostat] was 0.959.

On to `CCCCCCOC(=O)NC(=N)c1ccc(NCc2nc3cc(C(=O)N(CCC(=O)OCC)c4ccccn4)ccc3n2C)cc1` [Dabigatran etexilate], for which the cell viability was found to be 1.14. The result for `NCCCC(=O)O` [4-Aminobutyric acid] reads 1.08.

With `Cc1c(-c2ccccc2)oc2c(C(=O)OCCN3CCCCC3)cccc2c1=O` [Flavoxate hydrochloride], the cell viability was 1.21. In turn, `CC[C@@](C)(Nc1ccnc(-c2c[nH]c3ncccc23)n1)C(=O)NCC(F)(F)F` [Decernotinib] came in with a cell viability of 0.997.

As to `O=C1C[C@@H](c2ccc(O)c(O)c2)Oc2cc(O)cc(O)c21` [Eriodictyol], the cell viability was 1.19.

Regarding `NC(=O)c1cnc(N[C@@H]2CCCC[C@@H]2N)nc1Nc1cccc(-n2nccn2)c1`, the cell viability is 0.887. The compound `NS(=O)(=O)c1cc2c(cc1Cl)NC(C(Cl)Cl)NS2(=O)=O` (stereo unspecified) [Trichlormethiazide] gave a cell viability of 1.05. The result for `COc1ccc(Cn2ccc3ccc(C(=O)NO)cc32)cc1` reads 0.969. The result for `C#Cc1cccc(Nc2ncnc3cc(OCCOC)c(OCCOC)cc23)c1` [Erlotinib] reads 1.1; that for `CC(C)[N+](C)(CCOC(=O)C1c2ccccc2Oc2ccccc21)C(C)C` [Propantheline bromide], 1.23; that for `CN1CCC[C@@H]1Cc1c[nH]c2ccc(CCS(=O)(=O)c3ccccc3)cc12` [Eletriptan HBr], 1.07. As for `N[C@@H](CO)C(=O)O` [serine], the cell viability is 1.06. Regarding `CCCCCCCCCCCCCC(=O)[O-].CCCCCCCCCCCCCC(=O)[O-].N[C@@H]1CCCC[C@H]1N.[Pt+2]` [Miriplatin], the cell viability was determined as 1.08. For `CN(C)CCC=C1c2ccccc2COc2ccccc21` [Doxepin hydrochloride], the cell viability turned out to be 0.975. Compound `O=C(O)Cc1c[nH]c2ccc(O)cc12` came in with a cell viability of 0.972. As for `COCCNc1cc(NC(=O)N2CCCc3cc(CN4CCN(C)CC4=O)c(C=O)nc32)ncc1C#N` [Roblitinib], the cell viability was 1.09. The result for `CC1=CC(=O)C(C(C)C)=CC1=O` [Thymoquinon] reads 1; that for `CC(=O)c1ccc2c(c1)c1cc(C(C)=O)ccc1n2CCNC(C)C` [CBL0137 hydrochloride], 1.07; that for `C[S+]([O-])c1ccc(-c2nc(-c3ccc(F)cc3)c(-c3ccncc3)[nH]2)cc1` (stereo unspecified), 0.986. Compound `O=C(/C=C/c1ccc(O)cc1)CC(=O)/C=C/c1ccc(O)cc1` [Bisdemethoxycurcumin] gave a cell viability of 1.06.
